Results taken from patent US20250263469A1 (HOSPITAL FOR SICK CHILDREN, published 2025).

B1: MB 64 (other)
chain 1: DIQMTQSPSSLSASVGDRVTITCRASQGISSHLAWYQQKPGKAPKLLIYDASNLETGVPSRFSGSGSGTDFTLTISSLQPEDFATYYCQQTYSTPWTFGQGTKVEIKRTVAAPSVFIFPPSDEQLKSGTASVVCLLNNFYPREAKVQWKVDNALQSGNSQESVTEQDSKDSTYSLSSTLTLSKADYEKHKVYACEVTHQGLSSPVTKSFNRGECGGGGSGGGGSGGGGSGGGGSGGGGSGGGGSGGGGSGGGGSGGGGSGGGGSGGGGSGGGGSGGGGSGGGGSEVQLLESGGGLVQPGGSLRLSCAASGFPFSQHGMHWVRQAPGKGLEWVSAIDRSGSYIYYADSVKGRFTISRDNSKNTLYLQMNSLRAEDTAVYYCARDTYGGKVTYFDYWGQGTLVTVSSASTKGPSVFPLAPSSKSTSGGTAALGCLVKDYFPEPVTVSWNSGALTSGVHTFPAVLQSSGLYSLSSVVTVPSSSLGTQTYICNVNHKPSNTKVDKKVEPKSCGGGGSGGGGSGGGGSGGGGSGGGG[not shown - about 200 residues]
chain 2: [not shown - human IgG1 Fc]GGGGSGGGGSGGGGSGGGGSGGGGSGGGGSGGGGSGGGGSGGGGSGGGGSGGGGSGGGGSGGGGSGGGGS[not shown - human IgG1 Fc]GGGGSGGGGSGGGGSGGGGSGGGGSGGSSQIRQNYSTDVEAAVNSLVNLYLQASYTYLSLGFYFDRDDVALEGVSHFFRELAEEKREGYERLLKMQNQRGGRALFQDIKKPAEDEW
chain 3: DIQMTQSPSSLSASVGDRVTITCRASQGISSHLAWYQQKPGKAPKLLIYDASNLETGVPSRFSGSGSGTDFTLTISSLQPEDFATYYCQQTYSTPWTFGQGTKVEIKRTVAAPSVFIFPPSDEQLKSGTASVVCLLNNFYPREAKVQWKVDNALQSGNSQESVTEQDSKDSTYSLSSTLTLSKADYEKHKVYACEVTHQGLSSPVTKSFNRGECGGGGSGGGGSGGGGSGGGGSGGGGSGGGGSGGGGSGGGGSGGGGSGGGGSGGGGSGGGGSGGGGSGGGGSEVQLLESGGGLVQPGGSLRLSCAASGFPFSQHGMHWVRQAPGKGLEWVSAIDRSGSYIYYADSVKGRFTISRDNSKNTLYLQMNSLRAEDTAVYYCARDTYGGKVTYFDYWGQGTLVTVSSASTKGPSVFPLAPSSKSTSGGTAALGCLVKDYFPEPVTVSWNSGALTSGVHTFPAVLQSSGLYSLSSVVTVPSSSLGTQTYICNVNHKPSNTKVDKKVEPKSCGGGGSGGGGSGGGGSGGGGSGGGGSGKTPDAMKAAMALEKKLNQALLDLHALGSARTDPHLCDFLETHFLDEEVKLIKKMGDHLTNLHRLGGPEAGLGEYLFERLTLRHD
B2: MB 56 (other)
chain 1: DIQMTQSPSSLSASVGDRVTITCRASQGISSYLAWYQQKPGKAPKLLIYDASNLQSGVPSRFSGSGSGTDFTLTISSLQPEDFATYYCQQANSFPSTFGQGTKVEIKRTVAAPSVFIFPPSDEQLKSGTASVVCLLNNFYPREAKVQWKVDNALQSGNSQESVTEQDSKDSTYSLSSTLTLSKADYEKHKVYACEVTHQGLSSPVTKSFNRGECGGGGSGGGGSGGGGSGGGGSGGGGSGGGGSGGGGSGGGGSGGGGSGGGGSGGGGSGGGGSGGGGSGGGGSQVQLVQSGAEVKKPGASVKVSCKASGYTFTSYGISWVRQAPGQGLEWMGWISAYNGNTNYAQKLQGRVTMTRDTSTSTVYMELSSLRSEDTAVYYCARDIGPIDYWGQGTLVTVSSASTKGPSVFPLAPSSKSTSGGTAALGCLVKDYFPEPVTVSWNSGALTSGVHTFPAVLQSSGLYSLSSVVTVPSSSLGTQTYICNVNHKPSNTKVDKKVEPKSCGGGGSGGGGSGGGGSGGGGSGGGG[not shown - about 200 residues]
chain 2: B1 chain 2
chain 3: DIQMTQSPSSLSASVGDRVTITCRASQGISSYLAWYQQKPGKAPKLLIYDASNLQSGVPSRFSGSGSGTDFTLTISSLQPEDFATYYCQQANSFPSTFGQGTKVEIKRTVAAPSVFIFPPSDEQLKSGTASVVCLLNNFYPREAKVQWKVDNALQSGNSQESVTEQDSKDSTYSLSSTLTLSKADYEKHKVYACEVTHQGLSSPVTKSFNRGECGGGGSGGGGSGGGGSGGGGSGGGGSGGGGSGGGGSGGGGSGGGGSGGGGSGGGGSGGGGSGGGGSGGGGSQVQLVQSGAEVKKPGASVKVSCKASGYTFTSYGISWVRQAPGQGLEWMGWISAYNGNTNYAQKLQGRVTMTRDTSTSTVYMELSSLRSEDTAVYYCARDIGPIDYWGQGTLVTVSSASTKGPSVFPLAPSSKSTSGGTAALGCLVKDYFPEPVTVSWNSGALTSGVHTFPAVLQSSGLYSLSSVVTVPSSSLGTQTYICNVNHKPSNTKVDKKVEPKSCGGGGSGGGGSGGGGSGGGGSGGGGSGKTPDAMKAAMALEKKLNQALLDLHALGSARTDPHLCDFLETHFLDEEVKLIKKMGDHLTNLHRLGGPEAGLGEYLFERLTLRHD
B3: MB 349 (other)
chain 1: DIQMTQSPSSLSASVGDRVTITCRASQSISSWLAWYQQKPGKAPKLLIYDTSNLETGVPSRFSGSGSGTDFTLTISSLQPEDFATYYCQQSYTTPWTFGQGTRLEIKRTVAAPSVFIFPPSDEQLKSGTASVVCLLNNFYPREAKVQWKVDNALQSGNSQESVTEQDSKDSTYSLSSTLTLSKADYEKHKVYACEVTHQGLSSPVTKSFNRGECGGGGSGGGGSGGGGSGGGGSGGGGSGGGGSGGGGSGGGGSGGGGSGGGGSGGGGSGGGGSGGGGSGGGGSEVQLLESGGGLVQPGGSLRLSCAASGFTFSNYGMHWVRQAPGKGLEWVSGISSAGSITNYADSVKGRFTISRDNSKNTLYLQMNSLRAEDTAVYYCAGNHAGTTVTSEYFQHWGQGTLVTVSSASTKGPSVFPLAPSSKSTSGGTAALGCLVKDYFPEPVTVSWNSGALTSGVHTFPAVLQSSGLYSLSSVVTVPSSSLGTQTYICNVNHKPSNTKVDKKVEPKSCGGGGSGGGGSGGGGSGGGGSGGGG[not shown - about 200 residues]
chain 2: B1 chain 2
chain 3: DIQMTQSPSSLSASVGDRVTITCRASQSISSWLAWYQQKPGKAPKLLIYDTSNLETGVPSRFSGSGSGTDFTLTISSLQPEDFATYYCQQSYTTPWTFGQGTRLEIKRTVAAPSVFIFPPSDEQLKSGTASVVCLLNNFYPREAKVQWKVDNALQSGNSQESVTEQDSKDSTYSLSSTLTLSKADYEKHKVYACEVTHQGLSSPVTKSFNRGECGGGGSGGGGSGGGGSGGGGSGGGGSGGGGSGGGGSGGGGSGGGGSGGGGSGGGGSGGGGSGGGGSGGGGSEVQLLESGGGLVQPGGSLRLSCAASGFTFSNYGMHWVRQAPGKGLEWVSGISSAGSITNYADSVKGRFTISRDNSKNTLYLQMNSLRAEDTAVYYCAGNHAGTTVTSEYFQHWGQGTLVTVSSASTKGPSVFPLAPSSKSTSGGTAALGCLVKDYFPEPVTVSWNSGALTSGVHTFPAVLQSSGLYSLSSVVTVPSSSLGTQTYICNVNHKPSNTKVDKKVEPKSCGGGGSGGGGSGGGGSGGGGSGGGGSGKTPDAMKAAMALEKKLNQALLDLHALGSARTDPHLCDFLETHFLDEEVKLIKKMGDHLTNLHRLGGPEAGLGEYLFERLTLRHD

What was measured:
[1] = target: SARS-CoV-2 Spike on pseudotyped virus (PsV) (SARS-CoV-2); test: cell-based or functional assay
[2] = target: SARS-CoV-2 Spike on pseudotyped virus (PsV) (SARS-CoV-2); test: cell-based or functional assay; remark: listed apart in the source

Binder	IC50 SARS-CoV2 PsV, MB [1]	Median IC50, SARS-CoV-2 PsV neutralization [2]
B1	14 µg/mL	14 µg/mL
B2	> 50 µg/mL	> 50 µg/mL
B3	> 50 µg/mL	> 50 µg/mL
